Reference: PubChem BioAssay AID1508623 (National Center for Advancing Translational Sciences (NCATS), 2021)
Among all 48,000 compounds or so, about 450 (0.94%) were called active. Inconclusive results (about 19%) are left out. The call rests on the fitted dose curve; in most records, active means well fitted inhibition curve with a large enough effect; inconclusive means small, poorly fitted or top-dose-only effect; inactive means no such curve, though single readings can be large or run the other way. The list shows a part of the results.

Assay: Primary qHTS for Identification of Small Molecule Inhibitors of Huntingtin Promoter Activity; further: nearly all actives have a fitted effect of over 50% in size
Details: HEK293 HTT promoter firefly luciferase reporter (activity 0% = vehicle and -100% = no light), 24 h; series mostly up to 57.5 µM; activity change, negative = inhibition: at the top concentration
Procedure, shortened: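 Firefly luciferase readout (Dual-Glo, 10 min RT) after 24 h, 37 °C compound exposure (final up to 57.5 uM) of HEK293 reporter cells cultured 24 h beforehand; PTC124 at 50 uM final as control inhibitor; activity scaled vehicle 0%, zero RLU -100%.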

Activity change, negative = inhibition, inactive:
CC(=O)CC(c1ccccc1)c1c(O)c2ccccc2oc1=O (centres undefined), Oc1cccc(-c2nc(-c3cccs3)c(-c3cccs3)[nH]2)c1 -11.6%, COc1ccccc1NC(=O)c1cc2c(n(-c3ccc(C)cc3)c1=O)CC(C)(C)CC2=O -8.01%, CCc1cc2c(cc3c(=O)n(CC(=O)NC(C)C)nc(CC)n32)s1 0.408%, COc1ccc(CNC(=O)CSCc2ccc(C)cc2)c(OC)c1 -20.2%, CCC1CCCCN1CCCNC(=O)c1sc2nc(C)cc(C)c2c1-n1cccc1 (centres undefined) 0.594%, NS(=O)(=O)c1cc2c(cc1Cl)NC(C1CC3C=CC1C3)NS2(=O)=O (centres undefined) 0.0449%, O=C1NS(=O)(=O)c2ccccc21 0.551%, COc1ccc(CNC(=O)Cn2c(=O)n3nc(-c4cccc(F)c4)nc3c3ccccc32)cc1OC 2.47%, COc1ccc(CNC(=O)C2=Cc3cccc(OC)c3OC2)cc1OC -24.4%, O=C(Nc1ccc(F)cc1F)c1cc(CN2CCOCC2)on1 27.9%, CCc1ccc(CNC(=O)c2ccc(-n3c(C)cc4c3CCC(C)C4)cc2)cc1 (centres undefined) 3.82%, COc1cccc(C(c2sc3nc(-c4ccco4)nn3c2O)N2CCC3(CC2)OCCO3)c1 (centres undefined) 0%, COc1cc(Br)c(C2CC(=O)Nc3cc4c(cc32)OCCO4)cc1OC (centres undefined) -35.4%, Cc1cccc(NC(=O)C(Cc2ccccc2)N2Cc3ccccc3C2=O)c1C (centres undefined) -27.8%, CCc1nn(CC(=O)NCCN(CC(C)C)CC(C)C)c(=O)c2cc3sc(C)cc3n12 -18.9%, COc1ccc(-c2nc(CSc3nnc(C)n4c3cc3sccc34)c(C)o2)cc1 -12.8%, Oc1ccccc1-c1nc2ccc(Cl)cn2c1Nc1ccc2c(c1)OCCO2 -6.39%, CCS(=O)(=O)N1CCc2cc(C(=O)Nc3cccc(NC(C)=O)c3)ccc21 4.01%, COc1ccc(-c2ccc(=O)n(CC(=O)Nc3ccccc3C(F)(F)F)n2)cc1 19.9%, Cc1ccc(C2c3[nH]c4ccccc4c3CCN2C(=O)CSc2ccccc2)cc1 (centres undefined) -29.9%, Cc1ccccc1OCC(=O)Nc1nnc(S(=O)(=O)N2CCCCCC2)s1 -31.3%, CCc1nn2c(=O)cc(COC(=O)c3ccccc3NC(=O)c3ccc(C(C)(C)C)cc3)nc2s1 3.25%, c1coc(CNc2ncnc3nc[nH]c23)c1 -9.57%, Cc1ccc(-n2c(-c3cccc(C)c3)nc3c(cnn3-c3ccccc3)c2=O)cc1 -0.413%, CN(C)CCCOC1(Cc2ccccc2)CCCCCC1 -4.88%, O=C(CCCn1c(=O)[nH]c2ccccc2c1=O)NCc1ccccc1Cl 4.37%, COc1cccc(NC(=O)CSc2nc3ccc(NC(=O)c4ccco4)cc3s2)c1 -6.61%, CCc1nn(CC(=O)NCCCOC)c(=O)c2cc3occc3n12 -12.4%, CCCN(CCC)CCCNC(=O)Cn1cnc2onc(-c3ccc(F)cc3)c2c1=O -6.34%, O=C(Cn1cnc2c(nc3n2CCCCC3)c1=O)Nc1ccc(F)cc1 -8.09%, O=C(CN1C(=O)C(c2ccc(F)cc2)=NC12CCCCCC2)Nc1ccc(F)c(Cl)c1 -2.45%, COc1ccccc1NC(=O)Cn1c(=O)n(Cc2ccco2)c(=O)c2oc3ccccc3c21 -11%, CCC(=O)NC1CC(=O)N(c2ccc3c(c2)OCCO3)C1 (centres undefined) 5.45%, Cc1ccc2c(=O)cc(C(=O)Nc3c(C)n(C)n(-c4ccccc4)c3=O)oc2c1C -6.96% [at 11.5 µM], COC(=O)C(C)Sc1nnc2cc(C)c3cc(C)cc(C)c3n12 (centres undefined) -23.6%, CN(C(=O)c1nc(-c2cccc(F)c2)n2c1CCCCC2)c1ccccc1F -13.1%, COc1cc(C2c3c(-c4ccccc4O)n[nH]c3C(=O)N2Cc2ccncc2)ccc1O (centres undefined) -8.62%, COc1c(C)c2c(c(O)c1CC=C(C)CCC(=O)OCCN1CCOCC1)C(=O)OC2 -11.8%, Cc1ccccc1NC(=O)c1ccccc1NC(=O)c1ccccc1Cl 12.8%, CCc1ccc(NC(=O)CSc2ccc3nnc(CCNS(=O)(=O)c4ccc(OC)cc4)n3n2)cc1 -0.508%, CCc1ccc(NC(=O)C2CCN(c3cc(C)nc4c(-c5ccc(Cl)cc5)c(C)nn34)CC2)cc1 14.5%, Cc1nc2ccc(S(=O)(=O)CCC(=O)Nc3ccc(F)cc3C)cc2s1 -11.8%, CC(C)c1ccc(NC(=O)CCCc2nc(-c3ccc(Cl)cc3)no2)cc1 -0.0594%, COc1cc(Cl)c(NC(=O)C2CCN(S(=O)(=O)c3c(C)noc3/C=C/c3ccccc3F)CC2)c(OC)c1 -19.1%, Cc1ccc(C2=Nc3ccccc3NC(c3ccncc3)=N2)cc1 -23.6%, CCOc1ccc(-c2nc3c(C#N)c[nH]n3c2NC2CCCC2)cc1 3.76%, CNS(=O)(=O)c1cn(CC(=O)Nc2ccc(C)cc2C)cc1S(=O)(=O)NC 3.06%, CCOC(=O)c1cc(-c2ccc(C)cc2)nn1Cc1ccccc1 51.1%
